Reference: the supplement of paper PMC11417369
± gives the standard deviation of the averaged measurements. The list shows a part of the results.

tested on: PfAP2-I AP2 domain 3 (GST-tagged); test: gcPBM binding intensity (ln(normalized median fluorescence intensity)); higher = stronger DNA binding
Method in brief: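 GST-fused DNA-binding domains of P. falciparum, expressed in E. coli, were applied at about 25 μg on average for 1 h to an Agilent 4 × 180k array of primer-extended double-stranded 36-bp intergenic genomic probes and negative controls. Binding intensity is the highest Masliner-normalised natural-log median intensity across replicate spots of either probe orientation, measured with Alexa488 anti-GST antibody and a 488 nm scan.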

“ATAATAAGACGATAAGGTACACAAAATGTTAATATA [XGTACX_site6984]” and “TACTAATATGATATATAAATATTGTTATATAATAAT [XGTACX_negctrl_site227]” are within error of each other in “gcPBM binding intensity (ln)” value: 7.79 ± 0.58 for the first, 7.58 ± 0.13 for the second.

“AAAATAAAAGAAAAAAGTACAAAATCAGATTAATTA [XGTACX_site8413]” and “TGAATACAAATTTACGCATGTAATTTCCAGAGGGAG [TGCATGCA_site769]” are within error of each other in “gcPBM binding intensity (ln)” value: 7.44 ± 0.71 for the first, 7.87 ± 0.57 for the second.

Going from “TATAAAATATAATTAGCACACATATATAAAATATAT [CACACA_site9355]” to “AATATATGTAATATATGTACTTAATTATATTTTAAT [XGTACX_site4382]”, the “gcPBM binding intensity (ln)” value falls from 8.2 ± 0.028 to 7.54 ± 0.36.

“ACATATGAATATAATACACACTTGTATTATTAATAT [CACACA_site8546]” and “TTACCTTTATTGTATGAACACACATAAGCTGATACA [CACACA_site9334]” are within error of each other in “gcPBM binding intensity (ln)” value: 7.96 ± 0.49 for the first, 7.86 ± 0.47 for the second.

Going from AAAAAAAAAAAAAGAGTGCAAACTATGATAATTTAA to “TATATATATACATATTGTACATGTGTATATTTTTTT [XGTACX_site361]”, the “gcPBM binding intensity (ln)” value falls from 9.22 to 8.6 ± 0.45.

First: TTAGTTATTAAAAAAAGTACATAAGTAGATATCATC [XGTACX_site8712]
Second: AAAATTTAATATAATGCACACATAAAAAAAAAAAAA [CACACA_site7923]
The “gcPBM binding intensity (ln)” value of the first is lower: 7.79 ± 0.5 for the first, 11 ± 0.93 for the second.

First: CCATTTTTTTTATACGCACACGTCATACTTTTAAAA [CACACA_site4988]
Second: GAATAATATGGACATACACACATATACATACATATA [CACACA_site2114]
The “gcPBM binding intensity (ln)” value of the first is higher: 9.05 ± 0.15 for the first, 7.96 ± 0.39 for the second.

“TTATTTCATTCTTGAAGTACGTGAAAAATGAAAACA [XGTACX_site4089]” and “CGTAATAAAAACAAATGTACATGACCTGGACAGGTT [XGTACX_site6560]” are within error of each other in “gcPBM binding intensity (ln)” value: 8.12 ± 0.13 for the first, 7.7 ± 0.66 for the second.

First: GTATATTTTTAAAGGTGTACTTTTTTTTTTTTTTTT [XGTACX_site721]
Second: ATATAAAACTATAATACACACATAAAATATATTATA [CACACA_site6588]
The “gcPBM binding intensity (ln)” value of the first is higher: 8.85 ± 0.44 for the first, 7.89 ± 0.3 for the second.

Compared with “ATAAATATATATATAGTGCATATAAGCCACCTTCAA [GTGCAC_site9628]”, “TATATAATACAACATGCACACATATATATGTGAATC [CACACA_site8794]” is lower in “gcPBM binding intensity (ln)” value: 10.7 ± 0.11 for the first, 8.37 ± 0.21 for the second.

“TATATTTATTTATTCTGTACTGAAGACAGTTATGTA [XGTACX_site8857]” and “ATATATTTTATATAATGTACATAAACCGCACACATA [XGTACX_site6061]” are within error of each other in “gcPBM binding intensity (ln)” value: 7.62 ± 0.41 for the first, 8.29 ± 0.28 for the second.

“TTTCAAATTTAATACACACACAAGTATATATCTATC [CACACA_site7782]” and “ATTTAAAAAAAAAAAAAAAAAAAAAAAAAAAGAAAA [CACACA_negctrl_site722]” are within error of each other in “gcPBM binding intensity (ln)” value: 7.73 ± 0.52 for the first, 7.49 ± 0.49 for the second.

“TTTAATATTAGCATATGTACACAAATCACACGGAAA [XGTACX_site2473]” and “TATATTATGACCACCACACACCTATACACATAACAT [CACACA_site7199]” are within error of each other in “gcPBM binding intensity (ln)” value: 8.26 ± 0.33 for the first, 8.41 ± 0.26 for the second.

“TAATCCTTTCAATATTGTACACATTTGTGTTAAGAA [XGTACX_site1275]” and “AACGCACGAGGACACACACACATATTTATATTTATA [CACACA_site6608]” are within error of each other in “gcPBM binding intensity (ln)” value: 8.05 ± 0.22 for the first, 8.23 ± 0.23 for the second.

“TTTTTTAACTGTATGATGTTATATTAAAAATAAAAA [GTGCAC_negctrl_site463]” and “ATTTATATATAATATACACACATATAATACCCATAT [CACACA_site4548]” are within error of each other in “gcPBM binding intensity (ln)” value: 7.67 ± 0.36 for the first, 7.82 ± 0.52 for the second.

First: GGACAAGAATAGTGCACATGCAATGTTATTTTTTAT [TGCATGCA_site450]
Second: ATTATAACCATATACACACCCATATAAATAAATATA [CACACA_site6926]
The “gcPBM binding intensity (ln)” value of the first is higher: 10.7 ± 0.35 for the first, 7.88 ± 0.45 for the second.

First: CGTTTTAATAAGATCACACATATAATATATATATAT [CACACA_site5159]
Second: ATATTAAATGTTATCACACACATAATTACTTCCATA [CACACA_site7160]
The “gcPBM binding intensity (ln)” value of the first is higher: 8.82 ± 0.092 for the first, 7.87 ± 0.69 for the second.

“TATTAAATGGCCATTACATGCAATTATTTCTAATAA [TGCATGCA_site275]” and “TCAAATATATAGAATACACACATGGATATAAGAAAT [CACACA_site4065]” are within error of each other in “gcPBM binding intensity (ln)” value: 7.52 ± 0.45 for the first, 8.11 ± 0.59 for the second.

“ATTTAATTTGTTCTTACACACACATATATATATATT [CACACA_site8310]” and “ATAATATAAATACAAACACACAATTGCGTCCACATT [CACACA_site5039]” are within error of each other in “gcPBM binding intensity (ln)” value: 8.22 ± 0.76 for the first, 7.95 ± 0.54 for the second.

“TCATACGAAATATAAACACACATACAATAAATAAAT [CACACA_site5156]” and “GATAGAAAAAAATAATGTACACACACATATATGTTT [XGTACX_site392]” are within error of each other in “gcPBM binding intensity (ln)” value: 7.81 ± 0.52 for the first, 7.78 ± 0.55 for the second.

“GGCAGCAATTTAGTTACACACATATATAGGTATACA [CACACA_site76]” and “TACACATACCCATACACACGCATAGAAACATACGAA [CACACA_site5212]” are within error of each other in “gcPBM binding intensity (ln)” value: 7.99 ± 0.43 for the first, 7.86 ± 0.3 for the second.

“TATTTTTATTTTAATTGTACTTTTTAATTAATAATA [XGTACX_site8302]” and “TTTCTTTTTTCTGTTATTATTATAAAACGATATTTA [TGCATGCA_negctrl_site167]” are within error of each other in “gcPBM binding intensity (ln)” value: 7.8 ± 0.45 for the first, 7.64 ± 0.46 for the second.
